Assay results from the supplement of paper PMC3334620.
In all, about 33,000 sequences were measured (“E-score (-0.5 to 0.5)”: median about -0.04, highest 2% from about 0.36 on). The list shows a part of the results.

Target: T1, Hmlalpha2 (UniProt P0CY09)
T1 sequence: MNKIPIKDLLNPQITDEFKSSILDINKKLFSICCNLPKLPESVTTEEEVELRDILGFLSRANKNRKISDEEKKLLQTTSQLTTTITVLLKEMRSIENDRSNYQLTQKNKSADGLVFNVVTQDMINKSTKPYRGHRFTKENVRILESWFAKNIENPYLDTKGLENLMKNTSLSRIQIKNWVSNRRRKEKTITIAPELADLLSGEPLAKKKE
Test: PBM E-score (8-mer binding enrichment) (E-score (-0.5 to 0.5)); higher = stronger / more preferred TF binding; most listed sequences are background and not binding sites
Conditions: protein concentration: 200 nM; construct: GST-full length
In short: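 Yeast transcription factors carrying a GST tag, as full-length proteins or DNA-binding domains, were produced by PURExpress in vitro transcription/translation. About 100-200 nM protein was applied to universal all-10-mer Agilent arrays, double-stranded by primer extension on fresh or once-stripped slides. Bound protein was detected with fluorescent anti-GST, and scans were normalised with masliner. The Universal PBM Analysis Suite gave each ungapped eight-base word, pooled with its reverse complement, an E-score, a modified Wilcoxon-Mann-Whitney statistic.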

Row | Sequence | PBM E-score
1 | ACAGTGAA | 0.17
2 | GACCTGAC | -0.203
3 | AGCCCCTA | -0.386
4 | GAGGCCCA | -0.295
5 | AATGTACC | 0.166
6 | TGAACTAA | 0.0175
7 | AAGTTATC | 0.114
8 | GGATAACC | -0.122
9 | CTCGAGAG | -0.106
10 | CGTTTCCC | -0.141
11 | CCTACTCA | -0.25
12 | CGCACAGA | 0.0312
13 | CGCGACAG | -0.139
14 | CTCCGTAA | -0.017
15 | CCCATCTC | -0.341
16 | AAGCGGAG | -0.065
17 | CCCTTGAC | -0.16
18 | CAGGACTA | -0.175
19 | CGATTTCA | 0.138
20 | CAACTATG | 0.132
21 | CGTTTCCA | -0.0334
22 | CTCGTTTA | 0.19

Row | Sequence | PBM E-score
23 | AAGATCTT | -0.112
24 | CTCTGCAG | -0.217
25 | CTTTTTAA | 0.126
26 | CGGCGTCA | -0.0823
27 | ACAAGCGG | 0.201
28 | ACCGTAAT | -0.0654
29 | GATGTCAC | 0.00819
30 | AATAGACC | -0.0949
31 | ATCATGAC | 0.183
32 | ATGAGAAC | 0.144
33 | CCAGCCGA | -0.358
34 | ACTATCAA | 0.0674
35 | CGGAACTC | -0.222
36 | CACCGTAC | -0.0899
37 | AAATCCTG | 0.0248
38 | CATGCTTA | 0.148
39 | TCTAATCA | -0.013
40 | GGATTTTA | 0.0587
41 | AAGCGTCT | -0.232
42 | CTACGTAG | 0.257
43 | AGGCCTTA | -0.26
44 | CAATGACG | 0.0229

Row | Sequence | PBM E-score
45 | TATTATCA | 0.168
46 | ATGTAAGC | 0.374
47 | CCTAAAGA | -0.207
48 | GTAATCGA | 0.346
49 | GAGATTCA | -0.177
50 | TGGAAACA | -0.0534
51 | ACGAACAC | 0.259
52 | AGTGGCTA | -0.155
53 | GCTTGAAC | 0.129
54 | CCGGCGGA | -0.234
55 | CATCAGAG | -0.119
56 | ACCGATAG | -0.179
57 | TACAAAGA | 0.317
58 | CCGGACCG | -0.303
59 | AGCAATCC | -0.192
60 | ACGTTGTA | 0.334
61 | GGGACACC | -0.406
62 | CAAGTGCC | -0.159
63 | CTCGGGAC | -0.337
64 | ACGGTGCA | 0.063
65 | ACTGGGCG | -0.159
66 | TACTGTGA | -0.124

Row | Sequence | PBM E-score
67 | AGACAGTC | -0.125
68 | AACTGAAG | 0.123
69 | TCAAGGCA | -0.18
70 | GCAATGGC | -0.185
71 | AGCCAGAA | -0.103
72 | CCTCGGAG | -0.213
73 | CAGGATAA | -0.021
74 | AGGTCCAA | -0.112
75 | AACGGATT | 0.139
76 | CAATATTC | -0.0931
77 | ATGCGGGG | -0.19
78 | CCAGGAAC | -0.16
79 | CTCATTTA | 0.0583
80 | CTGATTTC | -0.118
81 | CAGGGCCA | -0.241
82 | ACGATCCT | -0.0378
83 | AACGCTAT | -0.0875
84 | CTCAGCCA | -0.154
85 | TAATAAAA | 0.28
86 | CACACCCG | 0.0239
